According to a collection of fitness landscapes (doi:10.1016/j.celrep.2020.107928):
Whole data set: some 81,000 sequences, median “one-hybrid fitness for binding NBS DNA” near -0.1, cut for the highest 2% near 0.36. The list shows a part of the results.

B1: Caulobacter ParB omega fusion; a variant is named by its letters at X, in order, B8GW30 (parent)
chain: MESVVVGEPGMSEGRRGLGRGLSALLGEVDAAPAQAPGEQLGGSREAPIEILQRNPDQPRRTFREEDLEDLSNSIREKGVLQPILVRPSPDTAGEYQIVAGERAWRAAQRAGLKTVPIMVRELDDLAVLEIGIIENVQRADLNVLEEALSYKVLMEKFERTQENIAQTIGKSXSHVANXMRLLXLPDEVQSYLVSGELTAXHARAIAAAADPVALAKQIIEGGLSVRETEALARKAPNLSAGKSKGGRPPRVKDTDTQALESDLSSVLGLDVSIDHRGSTGTLTITYATLEQLDDLCNRLTRGI

Variants of: B1
Assay: one-hybrid fitness for binding NBS DNA (the Noc-binding site; scaled: cognate 1, non-cognate 0); higher = stronger binding
Details: with NBS DNA site
Summary of the method: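 Fitness is the rescaled log change in variant-to-wild-type read ratio, measured by Illumina sequencing of plasmids before and after bacterial one-hybrid selection. The scale puts cognate at 1 and non-cognate at 0. Selection of Caulobacter ParB libraries, four specificity codons randomised, took place in E. coli USO with a HIS3 reporter, site 19 bp from the promoter, over 48 hours at 37°C on M9-minus-histidine with 0.1 mM IPTG and 5 mM 3-AT.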

Point of comparison: QCSY, “one-hybrid fitness for binding NBS DNA” value 0.22. Against it:
- SFQP — lower, ≤ 0.2
- MSNY — lower, ≤ 0.2
- KTHE — lower, ≤ 0.2
- KMYS — lower, ≤ 0.2
- EANW — lower, ≤ 0.2
- ITHY — lower, ≤ 0.2
- YIAE — lower, ≤ 0.2
- AYTW — lower, ≤ 0.2
- FNLV — lower, ≤ 0.2
- LAKQ — lower, ≤ 0.2
- RRPY — higher, 0.237
- HWKY — lower, ≤ 0.2
- HAHF — lower, ≤ 0.2
- WYNR — lower, ≤ 0.2
- SHCL — lower, ≤ 0.2
- TNNK — lower, ≤ 0.2
- HNLI — lower, ≤ 0.2
- VYHC — lower, ≤ 0.2
- AEQT — lower, ≤ 0.2
- LTVA — lower, ≤ 0.2
- ARET — lower, ≤ 0.2
- HCKG — lower, ≤ 0.2
- MPCR — lower, ≤ 0.2
- FAFT — higher, 0.242
- YFVN — lower, ≤ 0.2
- QCMN — lower, ≤ 0.2
- GYLT — lower, ≤ 0.2
- RGTD — lower, ≤ 0.2
- LRGM — lower, ≤ 0.2
- EDEC — lower, ≤ 0.2
- LITG — lower, ≤ 0.2
- STIA — lower, ≤ 0.2
- NMMY — lower, ≤ 0.2
- TTKD — lower, ≤ 0.2
- VLSS — lower, ≤ 0.2
- VPKG — lower, ≤ 0.2
- VIET — lower, ≤ 0.2
- RRVQ — higher, 0.428
- DSEV — lower, ≤ 0.2
- VGPW — lower, ≤ 0.2
- VCQW — lower, ≤ 0.2
- TMPV — lower, ≤ 0.2
- TIVI — lower, ≤ 0.2
- QAPI — lower, ≤ 0.2
- WCGR — lower, ≤ 0.2
- SPSH — lower, ≤ 0.2
- LFHS — lower, ≤ 0.2
- MNMR — lower, ≤ 0.2
- AVYM — lower, ≤ 0.2
- AWIG — lower, ≤ 0.2
- QKMS — higher, 0.414
- SPPP — lower, ≤ 0.2
- CAVC — lower, ≤ 0.2
- TTDN — lower, ≤ 0.2
- QTRI — higher, 0.478
- PYSD — lower, ≤ 0.2
- AQHN — lower, ≤ 0.2
- QMDK — lower, ≤ 0.2
- KSVA — lower, ≤ 0.2
- WAKC — lower, ≤ 0.2
- LNLW — lower, ≤ 0.2
- PGSG — lower, ≤ 0.2
- QPKP — lower, ≤ 0.2
- EQVS — lower, ≤ 0.2
- SGAR — lower, ≤ 0.2
- SWSM — lower, ≤ 0.2
- RKQE — lower, ≤ 0.2
- NWRS — lower, ≤ 0.2
- LNCP — lower, ≤ 0.2
- RGPG — lower, ≤ 0.2
- GCSC — lower, ≤ 0.2
- SKAS — lower, ≤ 0.2
- ECQG — lower, ≤ 0.2
- RQVI — lower, ≤ 0.2
- PQQQ — lower, ≤ 0.2
- PRKC — lower, ≤ 0.2
- HIIL — lower, ≤ 0.2
- GTTV — lower, ≤ 0.2
- RWQR — lower, ≤ 0.2
- DHDT — lower, ≤ 0.2
- MLQL — lower, ≤ 0.2
- HDKT — lower, ≤ 0.2
- HKSG — lower, ≤ 0.2
- RAEL — lower, ≤ 0.2
- TIML — lower, ≤ 0.2
- SQND — lower, ≤ 0.2
- LRNH — lower, ≤ 0.2
- PSTI — lower, ≤ 0.2
- TDPF — lower, ≤ 0.2
- MCKG — lower, ≤ 0.2
- VFTG — lower, ≤ 0.2
- NRQH — lower, ≤ 0.2
- DGQC — lower, ≤ 0.2
- GGFC — lower, ≤ 0.2
- LRVY — lower, ≤ 0.2
- HIVC — lower, ≤ 0.2
- NIAV — lower, ≤ 0.2
- QQLK — lower, ≤ 0.2
- QIRE — lower, ≤ 0.2
- PQFV — lower, ≤ 0.2
- RGVG — lower, ≤ 0.2
- DRSY — lower, ≤ 0.2
- DPNG — lower, ≤ 0.2
- DPDY — lower, ≤ 0.2
- WSSW — lower, ≤ 0.2
- NDLT — lower, ≤ 0.2
- KVKR — higher, 0.253
- WIYR — lower, ≤ 0.2
- VPMS — lower, ≤ 0.2
- LDSG — lower, ≤ 0.2
- CILC — lower, ≤ 0.2
- WLTN — lower, ≤ 0.2
- DVDM — lower, ≤ 0.2
- YLNV — lower, ≤ 0.2
- HWDS — lower, ≤ 0.2
- SHGC — lower, ≤ 0.2
- DPMT — lower, ≤ 0.2
- RRSW — lower, ≤ 0.2
- YPRC — lower, ≤ 0.2
- RRDV — higher, 0.223
- GNLR — lower, ≤ 0.2
- HFAY — lower, ≤ 0.2
- YGMG — lower, ≤ 0.2
- DESY — lower, ≤ 0.2
- VCHG — lower, ≤ 0.2
- SDRL — lower, ≤ 0.2
- GNRS — lower, ≤ 0.2
- IRFS — lower, ≤ 0.2
- NDIF — lower, ≤ 0.2
- QCPS — higher, 0.299
- VTNG — lower, ≤ 0.2
- ETLV — lower, ≤ 0.2
- GATK — lower, ≤ 0.2
- PSIV — lower, ≤ 0.2
- YSRT — lower, ≤ 0.2
- YAAM — lower, ≤ 0.2
- ENKT — lower, ≤ 0.2
- CLTD — lower, ≤ 0.2
- DGWG — lower, ≤ 0.2
- LFFR — lower, ≤ 0.2
- SCYR — lower, ≤ 0.2
- VNSD — lower, ≤ 0.2
- QHGC — lower, ≤ 0.2
- IVTK — lower, ≤ 0.2
- TFWS — lower, ≤ 0.2
- QAAF — lower, ≤ 0.2
- VPPL — lower, ≤ 0.2
- WYYT — lower, ≤ 0.2
- SCRM — lower, ≤ 0.2
- NVCR — lower, ≤ 0.2
- QQVT — higher, 0.393
- RMAE — lower, ≤ 0.2
- DVFR — lower, ≤ 0.2
- HRTK — lower, ≤ 0.2
- PVAV — lower, ≤ 0.2
- MGDR — lower, ≤ 0.2
- SLLP — lower, ≤ 0.2
- YHGV — lower, ≤ 0.2
- PTSY — lower, ≤ 0.2
- QQRP — higher, 0.312
- EVRG — lower, ≤ 0.2
- LDRC — lower, ≤ 0.2
- YKPE — lower, ≤ 0.2
- HERV — lower, ≤ 0.2
- MFNV — lower, ≤ 0.2
- RYVY — lower, ≤ 0.2
- NASV — lower, ≤ 0.2
- TANI — lower, ≤ 0.2
- QSRW — higher, 0.254
- GCIR — lower, ≤ 0.2
- VLEM — lower, ≤ 0.2
- ATYA — lower, ≤ 0.2
- CPWP — lower, ≤ 0.2
- KLAG — lower, ≤ 0.2
- TCLF — lower, ≤ 0.2
- HILC — lower, ≤ 0.2
- YIPV — lower, ≤ 0.2
- NTPP — lower, ≤ 0.2
- EVRT — lower, ≤ 0.2
- GCVC — lower, ≤ 0.2
- LYFR — lower, ≤ 0.2
- QNQW — lower, ≤ 0.2
- YRQC — lower, ≤ 0.2
- HVTE — lower, ≤ 0.2
- LAVT — lower, ≤ 0.2
- VVAA — lower, ≤ 0.2
- SAYW — lower, ≤ 0.2
- TSVA — lower, ≤ 0.2
- DHAS — lower, ≤ 0.2
- ANYR — lower, ≤ 0.2
- VPYL — lower, ≤ 0.2
- DRWT — lower, ≤ 0.2
- MHRC — lower, ≤ 0.2
- IPPT — lower, ≤ 0.2
- RHIH — lower, ≤ 0.2
- QHNV — lower, ≤ 0.2
- RLDS — lower, ≤ 0.2
- RMRT — higher, 0.633
- QIPI — lower, ≤ 0.2
- DCKT — lower, ≤ 0.2
- CATG — lower, ≤ 0.2
- PVHT — lower, ≤ 0.2
- TCAA — lower, ≤ 0.2
- FTIV — lower, ≤ 0.2
- SHAE — lower, ≤ 0.2
- FSTL — lower, ≤ 0.2
- PSMY — lower, ≤ 0.2
- LDFN — lower, ≤ 0.2
- RRCI — lower, ≤ 0.2
- AEFV — lower, ≤ 0.2
- ATSG — lower, ≤ 0.2
- HGFG — lower, ≤ 0.2
- MTTV — lower, ≤ 0.2
- DATR — lower, ≤ 0.2
- ADAS — lower, ≤ 0.2
- PHKS — lower, ≤ 0.2
- LMLS — lower, ≤ 0.2
- NSYC — lower, ≤ 0.2
- SGPV — lower, ≤ 0.2
- QEVF — lower, ≤ 0.2
- PKIK — lower, ≤ 0.2
- HKAN — lower, ≤ 0.2
- VGPV — lower, ≤ 0.2
- KRHF — lower, ≤ 0.2
- QKSH — higher, 0.241
- QHRG — higher, 0.296
- DTGA — lower, ≤ 0.2
- RNML — lower, ≤ 0.2
- RAEE — lower, ≤ 0.2
- PQDF — lower, ≤ 0.2
- PSWH — lower, ≤ 0.2
- GVLL — lower, ≤ 0.2
- CNHR — lower, ≤ 0.2
- SHPR — lower, ≤ 0.2
- PEIT — lower, ≤ 0.2
- GSMT — lower, ≤ 0.2
- YFLI — lower, ≤ 0.2
- CAGL — lower, ≤ 0.2
- IMTI — lower, ≤ 0.2
- PFNR — lower, ≤ 0.2
- TKVT — lower, ≤ 0.2
- AECI — lower, ≤ 0.2
- TTIY — lower, ≤ 0.2
- NKKR — higher, 0.3
- RSLA — lower, ≤ 0.2
- HTGQ — lower, ≤ 0.2
- ITRT — lower, ≤ 0.2
- GTEC — lower, ≤ 0.2
- VAFS — lower, ≤ 0.2
- NMGQ — lower, ≤ 0.2
- PWNI — lower, ≤ 0.2
- ETPA — lower, ≤ 0.2
- PVPF — lower, ≤ 0.2
- VNET — lower, ≤ 0.2
- QNNA — lower, ≤ 0.2
- TTCL — lower, ≤ 0.2
- WATL — lower, ≤ 0.2
- VMST — lower, ≤ 0.2
- SKNM — lower, ≤ 0.2
- TFLY — lower, ≤ 0.2
- LNHT — lower, ≤ 0.2
- TNSD — lower, ≤ 0.2
- GRMV — lower, ≤ 0.2
- KIVG — lower, ≤ 0.2
- VCRA — lower, ≤ 0.2
- RWWE — lower, ≤ 0.2
- VAEL — lower, ≤ 0.2
- YDNS — lower, ≤ 0.2
- SDRP — lower, ≤ 0.2
- CAGK — lower, ≤ 0.2
- ASPC — lower, ≤ 0.2
- TELM — lower, ≤ 0.2
- RITM — lower, ≤ 0.2
- QMTD — lower, ≤ 0.2
- CEYS — lower, ≤ 0.2
- ESML — lower, ≤ 0.2
- NVQS — lower, ≤ 0.2
- PFFA — lower, ≤ 0.2
- TGAV — lower, ≤ 0.2
- LAIS — lower, ≤ 0.2
- RPTC — lower, ≤ 0.2
- PLVR — lower, ≤ 0.2
- TIHG — lower, ≤ 0.2
- QLHT — higher, 0.393
- APVD — lower, ≤ 0.2
- WHCR — lower, ≤ 0.2
- SGTY — lower, ≤ 0.2
- GHAH — lower, ≤ 0.2
- VQNG — lower, ≤ 0.2
- TENQ — lower, ≤ 0.2
- NRFR — lower, ≤ 0.2
- PTRY — lower, ≤ 0.2
- NVPD — lower, ≤ 0.2
- ESLS — lower, ≤ 0.2
- VEHM — lower, ≤ 0.2
- TGHV — lower, ≤ 0.2
- GSPH — lower, ≤ 0.2
- YMYN — lower, ≤ 0.2
- NRSA — lower, ≤ 0.2
- EYWT — lower, ≤ 0.2
- RGLI — lower, ≤ 0.2
- YKSG — lower, ≤ 0.2
- WGPS — lower, ≤ 0.2
- CWRC — lower, ≤ 0.2
- QWNK — lower, ≤ 0.2
